This data set concerns ATP. The experiment in a line: switch fluorescence ratio, 500 uM ATP over buffer (Cy3 cluster intensity, sum of 5 cycles each) (fold (ratio)); higher = stronger signal-on switching upon ATP binding; sequences stand for … in TCGTCGGCAGCGTCAGATGTGTATAAGAGACAGTTTTTTTTTTTTTTTTTTTTTTTTT…TC. The conditions noted are these: aptamer strand: ATP DNA aptamer (quencher-CACCTGGGGGAGTATTGCGGAGGAAGG + anchor), 100 nM annealed; ATP concentration: 500 uM; one replicate. The gist of the method: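 Five buffer/ATP imaging cycles were run on Cy3-labelled switching-strand clusters on a modified Illumina MiSeq flow-cell, with NaOH stripping and re-annealing between cycles. In each cycle, clusters annealed to 100 nM quencher-labelled ATP aptamer were imaged in selection buffer, then after 15 min with 500 uM ATP at 22 °C. Per cluster, the fluorescence ratio is summed target-cycle over summed buffer-cycle Cy3 intensity, averaged per switch-domain sequence. Only clusters within 100-1000 RFU were kept.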

Sequences with one replicate were seen in a single cluster, so their values are uncertain.
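Note: ATP exposure 15 min at 22 °C before imaging.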

For AAACGGGG, the switch fluorescence ratio is 1.01.
As for TTAGAATGGT, the figure is 1; as for TCTTGAACCA, 0.983; as for AAGCAGCATT, 1.03.
As for AATTATCCCG, the figure is 1.01; as for AGGGAGTACT, 1.03; as for ACTCAGTAGT, 1.05.
In the case of TCTCGTATCT it was 0.941.
On to TTAAGTCATG, for which the switch fluorescence ratio came out at 0.983.
With TGTATTTTGA, the switch fluorescence ratio is 1.03.
In the case of CGAGCTCGTT it was 0.999; in that of GTTCGGGAGA, 0.999; in that of CGACACTAG, 1.04.
In the case of TGTTTTAATA it was 0.965.
With CGAGCCATAG, the switch fluorescence ratio came to 2.16.
As for TTTGCTGCGA, the figure is 0.974; as for TGTAACGCCT, 0.991; as for TCCAGAATGG, 1.03.
As for CCGCTAAGTA, the figure is 1.78; as for GCACACATCG, 1.01.
For GGAATGCTGG, the switch fluorescence ratio is 1.01.
Turning to GCGAGATCCA, the switch fluorescence ratio is 1.02.
As for AGCATCGCG, the figure is 1.03; as for CTTTTTTTAT, 1.02.
On to GTTGAACCTT, for which the switch fluorescence ratio was 1.75.
For ACGGGACTTA, the switch fluorescence ratio stood at 1.25.
As for GTGGGGAAGC, the figure is 0.952.
Turning to TCAGTTGGCT, the switch fluorescence ratio was determined as 0.982.
As for AAAGCTTCGA, the figure is 1.07; as for ACTTTCGGCT, 1.01.
As for GGCGGCCCCG, the figure is 0.994; as for GGTTCAATAT, 1.02; as for GTATGACGGT, 1.
As for GGGACCCGCA, the figure is 1.19; as for CCTGATTGA, 0.962.
Take TGACTCGGTC: the switch fluorescence ratio turned out to be 0.969.
With CATTCGTTCA, the switch fluorescence ratio came to 1.03.
As for TCATATTGCC, the figure is 1.04.
As for GGTTGATCTT, the figure is 0.986.
In the case of ACGTTTAGAG it was 1.01.
ATCAGCGGAC: the switch fluorescence ratio amounted to 2.37.
With AGTTCGTCTA, the switch fluorescence ratio is 0.993.
In the case of TGCTTCGACC it was 1.12.
In the case of CGTGGACCCA it was 0.984; in that of AGCGTCAACC, 1.06; in that of CGTTTGTTAA, 1.05.
As for ACTAAAGAA, the figure is 1.02; as for CAGAGGGGG, 1.06.
Take ACGATCGCGT: the switch fluorescence ratio stood at 0.923.
Consider GTTTATCTTT, for which the switch fluorescence ratio was 1.01.
In the case of GTGACGCTGA it was 1.14; in that of GTTAAGACCA, 1.03.
In the case of CTTTTTGAAA it was 0.957; in that of TATGCAGGCC, 0.964.
As for AGGCGCGACG, the figure is 1.02.
On to GCTTATAGAG, for which the switch fluorescence ratio was determined as 1.01.
In the case of CGTAACGTTG it was 1.01.
As for TTTAATGTTC, the figure is 1.
For the sequence CTTCTATCGC, the switch fluorescence ratio was found to be 1.45.
As for TGAATCGCAA, the figure is 4.8; as for GGATAAAACA, 0.963.
As to GCCTGCCGCA, the switch fluorescence ratio is 2.43.
In the case of AACGAGGGCG it was 1.07.
In the case of GACCAGCAGC it was 1.17; in that of TTGTAGTGGT, 1.02.
In the case of GAGACTGCAT, the switch fluorescence ratio amounted to 0.999.
In the case of CCTTGATCTA it was 0.964; in that of CCGACTTTTT, 1.31; in that of AATTCCACCT, 1.14.
As for TAATGGGCAC, the figure is 1.12.
In the case of TTGGTCATT it was 1.04; in that of AAATACATAC, 1.5.
As for AGATTCGTGT, the switch fluorescence ratio was determined as 1.01.
In the case of ATCCGCCGGA it was 1.2; in that of CCAGTGTATG, 1.04; in that of GTAATTATTT, 1.03.
As for CTTCGCGTAT, the figure is 1.26; as for TCAAAAGGTA, 0.976; as for ATAAGGATCA, 0.99.
With TCATTACATG, the switch fluorescence ratio was 1.02.
As for AGGGAAATAT, the figure is 1.04; as for TTGACACCTG, 1.02.
Turning to AGCAGCATCC, the switch fluorescence ratio amounted to 1.35.
As for TTGCGGCTGC, the figure is 0.985.
As to CTCTTAAAC, the switch fluorescence ratio was 1.02.
As for CAAGGGGGTC, the figure is 0.982.
As for GTGCAGTATG, the figure is 0.99.
In the case of AGAAGGGAAC it was 1.
As for TGTGGAATGC, the switch fluorescence ratio worked out at 1.28.
As for CTCATCTTTG, the figure is 0.993; as for GGTTTGGAC, 1.01.
Turning to ACGGTGATTG, the switch fluorescence ratio stood at 1.04.
As for TTAATGGCCG, the figure is 1.07; as for CTATACACAG, 1.1; as for TATCGTGTGT, 0.993.
In the case of TAATCGCTCT it was 1.05; in that of TCGTGCGACT, 0.979.
In the case of CAGGTGATT it was 1.27; in that of ACACTCAGT, 1.05; in that of GTTTCCTGTG, 1.42.
Regarding TTAGAGTAGA, the switch fluorescence ratio was found to be 0.996.
In the case of TCATTGTGCA it was 1.03.
As for ATTTCATCCG, the figure is 1.81.
Consider TACCATAAGG, for which the switch fluorescence ratio worked out at 1.03.
Turning to TCTATGGTTT, the switch fluorescence ratio turned out to be 0.987.
In the case of CCCTTGTA it was 0.992; in that of TTGACAATAT, 1.09; in that of AACTAGTTTG, 1.
As for AACGCCGCAA, the figure is 2.12; as for CTACGGACTA, 1.41; as for CTCCAGTACG, 1.43.
On to ATGATCACC, for which the switch fluorescence ratio is 1.03.
As for CGACTGTGG, the figure is 0.951; as for CGTGAGTCTT, 1.01; as for GATATAGATA, 0.991.
As for ATCAGGATGA, the figure is 0.946; as for TTTAAGTCTT, 0.979.
In the case of ACGATACTAT it was 1.37; in that of GACATAAGTA, 1; in that of CGTTTCGAGG, 0.99.

The values are drawn from the supplement of paper PMC10126150.
